# This is one part of the list.
# Columns and labels:
# Assay in all cases: glycan array binding signal (z-score within array); higher = stronger binding
# Conditions in all cases: glycan notation: IUPAC condensed, linker removed; mutation: E227A
# [1] = target: Gal(b1-4)GalNAc(b1-3)[Fuc(a1-2)]Gal(b1-4)GlcNAc
# How it was run: (§1)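 Columns mapping to the same glycan were averaged after glycan names were converted to IUPAC-condensed notation. The data come from 3228 arrays in the Consortium for Functional Glycomics database, limited to those with an available protein sequence. Binding is reported as a within-array Z-score averaged across arrays of one protein sequence and across linkers.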
# Gal(b1-4)Glc = target: Gal(b1-4)Glc
# How it was run: as §1
# Gal(b1-4)Glc6S = target: Gal(b1-4)Glc6S
# How it was run: as §1
# Gal(b1-4)GlcNAc = target: Gal(b1-4)GlcNAc
# How it was run: as §1
# [2] = target: Gal(b1-4)GlcNAc(a1-6)Gal(b1-4)GlcNAc
# How it was run: as §1
# Gal(b1-4)GlcNAc(b1-2)Man = target: Gal(b1-4)GlcNAc(b1-2)Man
# How it was run: as §1
# [3] = target: Gal(b1-4)GlcNAc(b1-2)Man(a1-3)Man(b1-4)GlcNAc(b1-4)GlcNAc
# How it was run: as §1
# [4] = target: Gal(b1-4)GlcNAc(b1-2)Man(a1-3)[Gal(b1-4)GlcNAc(b1-2)Man(a1-6)]Man(b1-4)GlcNAc(b1-4)GlcNAc
# How it was run: as §1
# [5] = target: Gal(b1-4)GlcNAc(b1-2)Man(a1-3)[Gal(b1-4)GlcNAc(b1-2)Man(a1-6)]Man(b1-4)GlcNAc(b1-4)[Fuc(a1-6)]GlcNAc
# How it was run: as §1
# [6] = target: Gal(b1-4)GlcNAc(b1-2)Man(a1-3)[Gal(b1-4)GlcNAc(b1-2)Man(a1-6)][Gal(b1-4)GlcNAc(b1-4)]Man(b1-4)GlcNAc(b1-4)[Fuc(a1-6)]GlcNAc
# How it was run: as §1
# [7] = target: Gal(b1-4)GlcNAc(b1-2)Man(a1-3)[Gal(b1-4)GlcNAc(b1-2)Man(a1-6)][GlcNAc(b1-4)]Man(b1-4)GlcNAc(b1-4)[Fuc(a1-6)]GlcNAc
# How it was run: as §1
# [8] = target: Gal(b1-4)GlcNAc(b1-2)Man(a1-3)[GlcNAc(b1-2)Man(a1-6)]Man(b1-4)GlcNAc(b1-4)GlcNAc
# How it was run: as §1
# [9] = target: Gal(b1-4)GlcNAc(b1-2)Man(a1-3)[GlcNAc(b1-4)][Gal(b1-4)GlcNAc(b1-2)Man(a1-6)]Man(b1-4)GlcNAc(b1-4)GlcNAc
# How it was run: as §1
# [10] = target: Gal(b1-4)GlcNAc(b1-2)Man(a1-3)[Man(a1-6)]Man(b1-4)GlcNAc(b1-4)GlcNAc
# How it was run: as §1
# [11] = target: Gal(b1-4)GlcNAc(b1-2)Man(a1-6)Man(b1-4)GlcNAc(b1-4)GlcNAc
# How it was run: as §1
# [12] = target: Gal(b1-4)GlcNAc(b1-2)Man(a1-6)[GlcNAc(b1-2)Man(a1-3)]Man(b1-4)GlcNAc(b1-4)GlcNAc
# How it was run: as §1
# [13] = target: Gal(b1-4)GlcNAc(b1-2)Man(a1-6)[Man(a1-3)]Man(b1-4)GlcNAc(b1-4)GlcNAc
# How it was run: as §1
# [14] = target: Gal(b1-4)GlcNAc(b1-2)[Gal(b1-4)GlcNAc(b1-4)]Man(a1-3)[Gal(b1-4)GlcNAc(b1-2)Man(a1-6)]Man(b1-4)GlcNAc(b1-4)GlcNAc
# How it was run: as §1
# [15] = target: Gal(b1-4)GlcNAc(b1-2)[Gal(b1-4)GlcNAc(b1-4)]Man(a1-3)[Gal(b1-4)GlcNAc(b1-2)[Gal(b1-4)GlcNAc(b1-6)]Man(a1-6)]Man(b1-4)GlcNAc(b1-4)GlcNAc
# How it was run: as §1
# [16] = target: Gal(b1-4)GlcNAc(b1-2)[Gal(b1-4)GlcNAc(b1-4)]Man(a1-3)[GlcNAc(b1-4)][Gal(b1-4)GlcNAc(b1-2)Man(a1-6)]Man(b1-4)GlcNAc(b1-4)GlcNAc
# How it was run: as §1
# [17] = target: Gal(b1-4)GlcNAc(b1-2)[Gal(b1-4)GlcNAc(b1-4)]Man(a1-3)[GlcNAc(b1-4)][Gal(b1-4)GlcNAc(b1-2)[Gal(b1-4)GlcNAc(b1-6)]Man(a1-6)]Man(b1-4)GlcNAc(b1-4)GlcNAc
# How it was run: as §1
# [18] = target: Gal(b1-4)GlcNAc(b1-2)[Gal(b1-4)GlcNAc(b1-6)]Man(a1-6)[Gal(b1-4)GlcNAc(b1-2)Man(a1-3)]Man(b1-4)GlcNAc(b1-4)GlcNAc
# How it was run: as §1
# [19] = target: Gal(b1-4)GlcNAc(b1-2)[Gal(b1-4)GlcNAc(b1-6)]Man(a1-6)[Gal(b1-4)GlcNAc(b1-2)Man(a1-3)]Man(b1-4)GlcNAc(b1-4)[Fuc(a1-6)]GlcNAc
# How it was run: as §1
# [20] = target: Gal(b1-4)GlcNAc(b1-2)[Gal(b1-4)GlcNAc(b1-6)]Man(a1-6)[GlcNAc(b1-4)][Gal(b1-4)GlcNAc(b1-2)Man(a1-3)]Man(b1-4)GlcNAc(b1-4)GlcNAc
# How it was run: as §1
# [21] = target: Gal(b1-4)GlcNAc(b1-2)[Gal(b1-4)GlcNAc(b1-6)]Man(a1-6)[GlcNAc(b1-4)][Gal(b1-4)GlcNAc(b1-2)[Gal(b1-4)GlcNAc(b1-4)]Man(a1-3)]Man(b1-4)GlcNAc(b1-4)[Fuc(a1-6)]GlcNAc
# How it was run: as §1
# [22] = target: Gal(b1-4)GlcNAc(b1-3)Gal(b1-3)GalNAc
# How it was run: as §1
# [23] = target: Gal(b1-4)GlcNAc(b1-3)Gal(b1-3)GlcNAc
# How it was run: as §1
# [24] = target: Gal(b1-4)GlcNAc(b1-3)Gal(b1-4)Glc
# How it was run: as §1
# [25] = target: Gal(b1-4)GlcNAc(b1-3)Gal(b1-4)GlcNAc
# How it was run: as §1
# [26] = target: Gal(b1-4)GlcNAc(b1-3)Gal(b1-4)GlcNAc(b1-2)Man(a1-3)[Gal(b1-4)GlcNAc(b1-3)Gal(b1-4)GlcNAc(b1-2)Man(a1-6)]Man(b1-4)GlcNAc(b1-4)GlcNAc
# How it was run: as §1
binder,measurement,setting,value
"Epa1-NP-mutant-E227A (Candida glabrata), Q6VBJ0 (protein) MILNPALFLNKCVCIYTTLILLLLTNGGYATSSNDISLASKDPTTFPLGCSPDITTPKKGLSMELYSYDFRKKGSYPCWDAAYLDPNYPRTGYKSHRLLAKVDGVTGNINFYYHATKGCTPQLGHLPASYNYPKPLTMTNFTMLLYGYFRPKVTGFHTFTISADDLLFVNFGAGNAFDCCRRDSSADHFGNYQAYAIWGSKTAKDELTVHLDAGVYYPIRLFYNNRAYDGALSFTFKTESNENTVSDFSEYFFSLDDTEEGCPGLISYDSSCASVKTSKIIGIDYHTETPNENLVPITKTIYHLGIPCTGTTTTPLCGSGFYDPLANKCVTINTSSTSSVTKTTSHTTSKEVSFHSSISSQKTLIPKSIPSPYGPIKSQSIPTEMETSSEISSSEYAFSDVISTPSHSPYTKKHSSLNSSSYTSTVIHSLTSYSISQGIFSTSLSEQNITSKSSTDKFSTATSMSNNITQSSIIISQFSTNNENYTTTSMHTSSDKISTETLNNSISTTTSILFSNSSTILKNNTTIISSDKDTHYHPVNPTIVCSTNKTEIICASITQPSISNSNNHWSSSVLKFNSTTVRSTLPSSAGSNETSINVPFSSSTESNTSTSSTSTSNSKMVRSTLPSSAGSNETSISVPFSSSTESNTSTSSTSTSNSKMVRSTLPSSAGSNETSINVPFSSSTESNTSTSSTSTSNSKTVRSTPFSSAGIIMTSLSQRNNKSASSYASSNSKCYNTADSCRKVHSTPSYLLTSSYTSEGVDYDCSLVSTKLKINDTNCVNNKHTTKSCLKTSVTTTIPTLEIKTARKSSSNTIGLHSYPTSSPNKSISSAPIIGYISSFKTIKTASPSYQTSDLTTITTITSLNNPGSTAVENTHESNDKSRKTSSNDISSKHSVIKETKDAVESSNKSHQTNTLKCSSIIIASSSHNSYESLGGTTLTLTLSKVYSPQNNDTLPFLEISEVNPSRTVLPESSKMMQYLTSTEERNKTARNTIATNIVSISTFHFEGEGNAIRMGYTQLLLMLIGIIVMNIGT",glycan array binding signal (z-score),[1],0.217
same,glycan array binding signal (z-score),Gal(b1-4)Glc,-0.13
same,glycan array binding signal (z-score),Gal(b1-4)Glc6S,0.839
same,glycan array binding signal (z-score),Gal(b1-4)GlcNAc,-0.058
same,glycan array binding signal (z-score),[2],0.914
same,glycan array binding signal (z-score),Gal(b1-4)GlcNAc(b1-2)Man,-0.194
same,glycan array binding signal (z-score),[3],-0.186
same,glycan array binding signal (z-score),[4],-0.202
same,glycan array binding signal (z-score),[5],-0.197
same,glycan array binding signal (z-score),[6],-0.227
same,glycan array binding signal (z-score),[7],-0.222
same,glycan array binding signal (z-score),[8],-0.232
same,glycan array binding signal (z-score),[9],-0.197
same,glycan array binding signal (z-score),[10],-0.196
same,glycan array binding signal (z-score),[11],-0.168
same,glycan array binding signal (z-score),[12],-0.216
same,glycan array binding signal (z-score),[13],-0.172
same,glycan array binding signal (z-score),[14],-0.06
same,glycan array binding signal (z-score),[15],0.007
same,glycan array binding signal (z-score),[16],-0.192
same,glycan array binding signal (z-score),[17],0.117
same,glycan array binding signal (z-score),[18],-0.144
same,glycan array binding signal (z-score),[19],-0.036
same,glycan array binding signal (z-score),[20],-0.194
same,glycan array binding signal (z-score),[21],0.052
same,glycan array binding signal (z-score),[22],-0.214
same,glycan array binding signal (z-score),[23],-0.204
same,glycan array binding signal (z-score),[24],-0.09
same,glycan array binding signal (z-score),[25],0.012
same,glycan array binding signal (z-score),[26],0.151

# Source: the supplement of paper PMC8728848
